The values below come from US9650358B2 (priority 2013, dated 2017).

The test system of the test is H929 cells. Put plainly: cells. Particulars: Homo sapiens, NCI-H929, 24 h, read-out: H929 viability EC50.

Take `Fc1cccc(Cn2cnc3ccc(-c4cc(NC5CC6CCCC(C5)N6)ncc4Cl)cc32)c1` (centres unmarked) [Example 124, N-{5-chloro-4-[1-(3-fluorobenzyl)-1H-benzimidazol-6-yl]pyridin-2-yl}-9-azabicyclo[3.3.1]nonan-3-amine]: the EC50 worked out at 4500 nM.

Turning to `Fc1cccc(Cn2cnc3ccc(-c4cc(N[C@@H]5CC[C@@]56CCCNC6)ncc4Cl)cc32)c1` [Example 127, (1R,4R)—N-{5-chloro-4-[1-(3-fluorobenzyl)-1H-benzimidazol-6-yl]pyridin-2-yl}-6-azaspiro[3.5]nonan-1-amine], the concentration for a half-maximal effect (EC50) came to 2800 nM.

`NCC1CCCC(CNc2cc(-c3ccc4ncn(Cc5cccc(F)c5)c4c3)c(Cl)cn2)C1` (centres unmarked) [Example 128, N-{[3-(aminomethyl)cyclohexyl]methyl}-5-chloro-4-[1-(3-fluorobenzyl)-1H-benzimidazol-6-yl]pyridin-2-amine]: the EC50 was 1600 nM.

For the compound `O=C(CC1CCNCC1)Nc1cc(-c2ccc3ncn(Cc4cccc(F)c4)c3c2)c(Cl)cn1` [Example 129, N-{5-chloro-4-[1-(3-fluorobenzyl)-1H-benzimidazol-6-yl]pyridin-2-yl}-2-(piperidin-4-yl)acetamide], the EC50 is 970 nM.

With `O=C(Nc1cc(-c2ccc3ncn(Cc4cncc(F)c4)c3c2)c(Cl)cn1)[C@@H]1CCCNC1` [Example 131, (3R)—N-(5-chloro-4-{1-[(5-fluoropyridin-3-yl)methyl]-1H-benzimidazol-6-yl}pyridin-2-yl)piperidine-3-carboxamide], the EC50 came to 360 nM.

With `N#CC1(Cn2cnc3ccc(-c4cc(NC(=O)[C@@H]5CCCNC5)ncc4Cl)cc32)CCOCC1` [Example 132, (3R)—N-(5-chloro-4-{1-[(4-cyanotetrahydro-2H-pyran-4-yl)methyl]-1H-benzimidazol-6-yl}pyridin-2-yl)piperidine-3-carboxamide], the EC50 worked out at 860 nM.

As to `O=C(Nc1cc(-c2ccc3ccn(Cc4cccc(F)c4)c3n2)c(Cl)cn1)[C@@H]1CCCNC1` [Example 134, (3R)—N-{5-chloro-4-[1-(3-fluorobenzyl)-1H-pyrrolo[2,3-b]pyridin-6-yl]pyridin-2-yl}piperidine-3-carboxamide], the concentration for a half-maximal effect (EC50) was 780 nM.

On to `O=C(Nc1cc(-c2ccc3cnn(Cc4cccc(F)c4)c3c2)c(Cl)cn1)[C@@H]1CCCNC1` [Example 136, (3R)—N-{5-chloro-4-[1-(3-fluorobenzyl)-1H-indazol-6-yl]pyridin-2-yl}piperidine-3-carboxamide], for which the EC50 turned out to be 3500 nM.

Regarding `O=C(Nc1cc(-c2ccc3nnn(CCN(CCO)CCO)c3c2)c(Cl)cn1)[C@@H]1CCCNC1` [Example 137, (3R)—N-[4-(1-{2-[bis(2-hydroxyethyl)amino]ethyl}-1H-benzotriazol-6-yl)-5-chloropyridin-2-yl]piperidine-3-carboxamide], the EC50 was above 10000 nM.

In the case of `O=C(Nc1cc(-c2ccc3nnn(CCN4CCOCC4)c3c2)c(Cl)cn1)[C@@H]1CCCNC1` [Example 141, (3R)—N-(5-chloro-4-{1-[2-(morpholin-4-yl)ethyl]-1H-benzotriazol-6-yl}pyridin-2-yl)piperidine-3-carboxamide], the EC50 was 2100 nM.

As for `Cc1nc2ccc(-c3cc(NC(=O)[C@@H]4CCCNC4)ncc3Cl)cc2n1Cc1cccc(F)c1` [Example 142, (3R)—N-{5-chloro-4-[1-(3-fluorobenzyl)-2-methyl-1H-benzimidazol-6-yl]pyridin-2-yl}piperidine-3-carboxamide], the EC50 worked out at 440 nM.

Take `C[C@H](c1cccc(F)c1)n1nnc2ccc(-c3cc(NC(=O)[C@@H]4CCCNC4)ncc3Cl)cc21` [Example 145, (3R)—N-(5-chloro-4-{1-[(1R)-1-(3-fluorophenyl)ethyl]-1H-benzotriazol-6-yl}pyridin-2-yl)piperidine-3-carboxamide]: the EC50 is 370 nM.

On to `O=C(Nc1cc(-c2cc3c(cc2Cl)ncn3CC2CCOCC2)c(Cl)cn1)[C@@H]1CCCNC1` [Example 147, (3R)—N-{5-chloro-4-[5-chloro-1-(tetrahydro-2H-pyran-4-ylmethyl)-1H-benzimidazol-6-yl]pyridin-2-yl}piperidine-3-carboxamide], for which the EC50 amounted to 850 nM.

`CS(=O)(=O)Nc1ccc(CN2CCc3ccc(-c4cc(NC(=O)C5CCCNC5)ncc4Cl)cc32)cc1` (centres unmarked) [Example 149, N-[5-chloro-4-(1-{4-[(methylsulfonyl)amino]benzyl}-2,3-dihydro-1H-indol-6-yl)pyridin-2-yl]piperidine-3-carboxamide]: the EC50 was found to be 5700 nM.

In the case of `CS(=O)(=O)c1cc(CN2CCc3ccc(-c4cc(NC(=O)C5CCCNC5)ncc4Cl)cc32)ccc1F` (centres unmarked) [Example 150, N-(5-chloro-4-{1-[4-fluoro-3-(methylsulfonyl)benzyl]-2,3-dihydro-1H-indol-6-yl}pyridin-2-yl)piperidine-3-carboxamide], the EC50 was 1400 nM.

Consider `O=C(Nc1cc(-c2ccc3c(c2)N(Cc2cncnc2)CC3)c(Cl)cn1)C1CCCNC1` (centres unmarked) [Example 158, N-{5-chloro-4-[1-(pyrimidin-5-ylmethyl)-2,3-dihydro-1H-indol-6-yl]pyridin-2-yl}piperidine-3-carboxamide], for which the EC50 was determined as 1800 nM.

On to `O=C(Nc1cc(-c2ccc3c(c2)N(Cc2nc4ccccc4[nH]2)CC3)c(Cl)cn1)C1CCCNC1` (centres unmarked) [Example 161, N-{4-[1-(1H-benzimidazol-2-ylmethyl)-2,3-dihydro-1H-indol-6-yl]-5-chloropyridin-2-yl}piperidine-3-carboxamide], for which the EC50 stood at 4800 nM.

On to `Cn1nnc2cc(CN3CCc4ccc(-c5cc(NC(=O)C6CCCNC6)ncc5Cl)cc43)ccc21` (centres unmarked) [Example 164, N-(5-chloro-4-{1-[(1-methyl-1H-benzotriazol-5-yl)methyl]-2,3-dihydro-1H-indol-6-yl}pyridin-2-yl)piperidine-3-carboxamide], for which the EC50 was 1500 nM.

On to `O=C(Nc1cc(-c2ccc3c(c2)N(Cc2ccc4nccnc4c2)CC3)c(Cl)cn1)C1CCCNC1` (centres unmarked) [Example 167, N-{5-chloro-4-[1-(quinoxalin-6-ylmethyl)-2,3-dihydro-1H-indol-6-yl]pyridin-2-yl}piperidine-3-carboxamide], for which the 50% effective concentration (EC50) was determined as 3000 nM.

In the case of `O=C(Nc1cc(-c2ccc3c(c2)N(Cc2cnccn2)CC3)c(Cl)cn1)C1CCCNC1` (centres unmarked) [Example 168, N-{5-chloro-4-[1-(pyrazin-2-ylmethyl)-2,3-dihydro-1H-indol-6-yl]pyridin-2-yl}piperidine-3-carboxamide], the EC50 worked out at 3200 nM.

Consider `O=C(Nc1cc(-c2ccc3c(c2)N(Cc2cnc4c(c2)OCCO4)CC3)c(Cl)cn1)C1CCCNC1` (centres unmarked) [Example 169, N-{5-chloro-4-[1-(2,3-dihydro[1,4]dioxino[2,3-b]pyridin-7-ylmethyl)-2,3-dihydro-1H-indol-6-yl]pyridin-2-yl}piperidine-3-carboxamide], for which the EC50 was 2400 nM.

`CS(=O)(=O)c1ccc(CN2CCc3ccc(-c4cc(NC(=O)C5CCCNC5)ncc4Cl)cc32)cn1` (centres unmarked) [Example 170, N-[5-chloro-4-(1-{[6-(methylsulfonyl)pyridin-3-yl]methyl}-2,3-dihydro-1H-indol-6-yl)pyridin-2-yl]piperidine-3-carboxamide]: the concentration giving a half-maximal response (EC50) was 2000 nM.

Take `NS(=O)(=O)c1ccc(CN2CCc3ccc(-c4cc(NC(=O)C5CCCNC5)ncc4Cl)cc32)cc1` (centres unmarked) [Example 171, N-{5-chloro-4-[1-(4-sulfamoylbenzyl)-2,3-dihydro-1H-indol-6-yl]pyridin-2-yl}piperidine-3-carboxamide]: the EC50 stood at 3600 nM.

Turning to `CS(=O)(=O)c1ccc(CN2CCc3ccc(-c4cc(NC(=O)C5CCCNC5)ncc4Cl)cc32)cc1F` (centres unmarked) [Example 172, N-(5-chloro-4-{1-[3-fluoro-4-(methylsulfonyl)benzyl]-2,3-dihydro-1H-indol-6-yl}pyridin-2-yl)piperidine-3-carboxamide], the EC50 came to 1100 nM.

Take `O=C(Nc1cc(-c2cnc3ncn(Cc4cccc(F)c4)c3c2)c(Cl)cn1)C1CCCNC1` (centres unmarked) [Example 176, N-{5-chloro-4-[1-(3-fluorobenzyl)-1H-imidazo[4,5-b]pyridin-6-yl]pyridin-2-yl}piperidine-3-carboxamide]: the EC50 worked out at 220 nM.

For the compound `Clc1cnc(NC2CC3(CCNCC3)C2)cc1-c1ccc2ncn(CC3CCOCC3)c2c1` [Example 179, N-{5-chloro-4-[1-(tetrahydro-2H-pyran-4-ylmethyl)-1H-benzimidazol-6-yl]pyridin-2-yl}-7-azaspiro[3.5]nonan-2-amine], the EC50 was 1600 nM.

Take `O=C(/C=C/c1ccncc1)Nc1cc(-c2ccc3ncn(Cc4cccc(F)c4)c3c2)c(Cl)cn1` [Example 181, (2E)-N-{5-chloro-4-[1-(3-fluorobenzyl)-1H-benzimidazol-6-yl]pyridin-2-yl}-3-(pyridin-4-yl)prop-2-enamide]: the EC50 is 400 nM.

Consider `CS(=O)(=O)CC(=O)Nc1cc(-c2ccc3ncn(Cc4cccc(F)c4)c3c2)c(Cl)cn1` [Example 184, N-{5-chloro-4-[1-(3-fluorobenzyl)-1H-benzimidazol-6-yl]pyridin-2-yl}-2-(methylsulfonyl)acetamide], for which the EC50 was determined as 270 nM.

In the case of `O=C(Nc1cc(-c2ccc3ncn(Cc4cccc(F)c4)c3c2)c(Cl)cn1)C1CC(=O)N(Cc2ccccc2)C1` (centres unmarked) [Example 186, 1-benzyl-N-{5-chloro-4-[1-(3-fluorobenzyl)-1H-benzimidazol-6-yl]pyridin-2-yl}-5-oxopyrrolidine-3-carboxamide], the concentration for a half-maximal effect (EC50) came to 220 nM.

`O=C(Nc1cc(-c2ccc3ncn(Cc4cccc(F)c4)c3c2)c(Cl)cn1)c1cnc2c(c1)OCCO2` [Example 187, N-{5-chloro-4-[1-(3-fluorobenzyl)-1H-benzimidazol-6-yl]pyridin-2-yl}-2,3-dihydro[1,4]dioxino[2,3-b]pyridine-7-carboxamide]: the EC50 is 140 nM.

On to `O=C(Nc1cc(-c2ccc3ncn(Cc4cccc(F)c4)c3c2)c(Cl)cn1)C1CCC(O)(C(F)(F)F)CC1` (centres unmarked) [Example 194, N-{5-chloro-4-[1-(3-fluorobenzyl)-1H-benzimidazol-6-yl]pyridin-2-yl}-4-hydroxy-4-(trifluoromethyl)cyclohexanecarboxamide], for which the EC50 is 270 nM.

Regarding `CS(=O)(=O)N1CC2(C1)C(C(=O)Nc1cc(-c3ccc4ncn(Cc5cccc(F)c5)c4c3)c(Cl)cn1)CCS2(=O)=O` (centres unmarked) [Example 196, N-{5-chloro-4-[1-(3-fluorobenzyl)-1H-benzimidazol-6-yl]pyridin-2-yl}-2-(methylsulfonyl)-5-thia-2-azaspiro[3.4]octane-8-carboxamide 5,5-dioxide], the EC50 is 450 nM.
